Assay results as given in the supplement of paper PMC4604168 (melanoma cell lines).
The list shows a part of the results. Repeats are few or missing, and single values can be far off.

test system: IST-MEL1; assay: cell count relative to DMSO control; melanoma cells; higher = more viable cells; conditions: library dose: low library concentration; 72 h
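Further: cell number obtained by counting DAPI-stained nuclei in high-throughput microscope images with image analysis software, screen run in 1,536-well plates.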

SMILES | cell count [%]
COc1cc(N2CCC(N3CCN(C)CC3)CC2)ccc1Nc1ncc(Cl)c(Nc2ccccc2S(=O)(=O)C(C)C)n1 + Cn1cc(/C=C2\C(=O)Nc3cccnc32)c2ccccc21 [GW441756] (first compound 0.08 µM, partner dose 0.4 µM) | 99.5
CCN(CC)CCCCNc1ncc2cc(-c3cc(OC)cc(OC)c3)c(NC(=O)NC(C)(C)C)nc2n1 + Cn1cc(/C=C2\C(=O)Nc3cccnc32)c2ccccc21 [GW441756] (first compound 0.1 µM, partner dose 0.4 µM) | 110
N#Cc1c(O)c2c(-c3ccc(-c4ccccc4O)cc3)csc2[nH]c1=O + O=c1cc(-c2cccc3c2Sc2ccccc2S3)oc(N2CCOCC2)c1 [KU55933] (first compound 2 µM, partner dose 1 µM) | 98.5
COc1ccc(COc2ccc(Cc3cnc(N)nc3N)cc2OC)cc1 + CC(C)CCN1c2nc(Nc3cc(F)c(O)c(F)c3)ncc2N(C)C(=O)C1C [BID1870] (first compound 1 µM, partner dose 0.2 µM) | 118
COc1cc2ncnc(Nc3ccc(Oc4ccccc4)cc3)c2cc1OC + c1cc(-c2cnn3cc(-c4ccc(OCCN5CCCCC5)cc4)cnc23)ccn1 [Dorsomorphin] (first compound 2 µM, partner dose 0.4 µM) | 95.2
O=C(O)C(=O)Nc1sc2c(c1C(=O)O)CCNC2 + c1cc(-c2cnn3cc(-c4ccc(OCCN5CCCCC5)cc4)cnc23)ccn1 [Dorsomorphin] (first compound 1.66667 µM, partner dose 0.4 µM) | 101
